# Experimental data published in PubChem BioAssay AID651820 (National Center for Advancing Translational Sciences (NCATS), 2012).
# The whole screen tested about 340,000 compounds, of which about 12,000 (3.5%) were called active. This list was built around the results that the source calls inconclusive (neither active nor inactive); the mix of calls is not that of the screen. Calls follow the shape of the dose curve; as a rule, active = well fitted inhibition curve with a large enough effect; inconclusive = small, poorly fitted or top-dose-only effect, or another doubt; inactive = no such curve, though single readings can be large or run the other way. No potency is given beside an inconclusive call; the fits are too rough.
# Experiment: qHTS Assay for Inhibitors of Hepatitis C Virus (HCV)
# Settings: Huh7.5.1 HCVcc-Cre (HCVcc is cell-culture hepatitis C virus) infection, luciferase reporter, 44 h; activity change, negative = inhibition: at 41.8 µM (top of the series)
# Method in brief: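 Antiviral activity was scored by luciferase reporter output from cells infected with HCVcc-Cre (~0.5 moi) in presence of compound, 44 h infection period, cells seeded 1,000/well 4 h prior.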
# % is scaled to controls: 0 for no effect and ±100 for the full control effect; potency is read from the fitted curve at half-maximal effect; tags tell the direction and shape of the fitted curve.
SMILES,Potency,"activity change, negative = inhibition"
Cc1cccc2sc(NC(=O)CN3C(=O)NC4(CCCC4)C3=O)nc12,"inconclusive [inhibitor, single point]",–
Cc1cc2c(NCCc3ccccc3)ncnc2s1,active: 5.62 µM,–
COC(=O)c1ccc(NC(=O)CCC(=O)c2ccc(F)cc2)cc1,–,inactive: 8.05%
COc1ccc(C(O)(C(C)C)C(CN2CCOCC2)c2ccc(Cl)cc2)cc1 (stereo unspecified),"inconclusive [inhibitor, single point]",–
CCOC(=O)c1c(NC2OC(=O)c3c2ccc(OC)c3OC)sc(C(=O)OC(C)(C)C)c1C (stereo unspecified),"inconclusive [inhibitor, single point]",–
CCOC(=O)CC/C(C)=N\N=C1\SC(CC(=O)O)C(=O)N1c1ccccc1 (stereo unspecified),–,inactive: 11.1%
CCCCNC(=O)N(O)C1N(/N=C/c2cccnc2)C(=S)SC1(C)C (stereo unspecified),"inconclusive [inhibitor, single point]",–
Cc1ccc(C(C(=O)NCC2CCCO2)N(C(=O)c2snc(C(N)=O)c2N)c2ccc(C(C)C)cc2)o1 (stereo unspecified),"inconclusive [inhibitor, partial curve]",–
Cn1c(/C=C/c2cccc([N+](=O)[O-])c2)c([N+](=O)[O-])c(=O)n(C)c1=O,"inconclusive [inhibitor, single point]",–
Cc1cc(Br)ccc1NC(=O)CN(C)C(=O)CCSc1ccc(F)cc1,"inconclusive [inhibitor, partial curve]",–
COc1ccc(-c2cc(=O)oc3cc(OCC(=O)NCCCn4ccnc4)ccc23)cc1,"inconclusive [inhibitor, partial curve]",–
COc1ccc(C(=O)N2CCOCC2)cc1S(=O)(=O)N1CCCc2ccccc21,"inconclusive [inhibitor, partial curve, poor fit]",–
CCCn1c(C(O)c2ccc(OCC)cc2)nc2ccccc21 (stereo unspecified),"inconclusive [inhibitor, single point]",–
CC1=C(C(=O)OCC2CCCO2)C(c2ccc(C)o2)C2=C(CC(c3ccc(N(C)C)cc3)CC2=O)N1 (stereo unspecified),"inconclusive [inhibitor, full curve]",–
O=C(NCCc1ccc2c(c1)OCCO2)c1cccc(F)c1,"inconclusive [inhibitor, partial curve]",–
COc1ccccc1NS(=O)(=O)c1cc(NC(=O)c2cccnc2)ccc1N1CCCCC1,"inconclusive [inhibitor, single point]",–
COC(=O)COc1cc(C)cc2oc(=O)c(CC(=O)OC)c(C)c12,"inconclusive [inhibitor, single point]",–
CCn1cc(C(=O)NCc2ccc3c(c2)OCO3)c(=O)c2cc(F)c(N3CCN(C(=O)c4ccco4)CC3)cc21,"inconclusive [inhibitor, single point]",–
COc1ccc(OC)c(-c2csc(N(CC3CCCO3)C(=O)C3CCCCC3)n2)c1 (stereo unspecified),"inconclusive [inhibitor, single point]",–
Cc1nc2c(-c3ccc(Cl)cc3)cnn2c(N)c1-c1ccc(F)cc1,–,inactive: -3.26%
O=C(c1ccc2c(c1)OCCO2)N1CCN(c2ncc(C(F)(F)F)cc2Cl)CC1,"inconclusive [inhibitor, single point]",–
CCCOc1cccc(C2C(C(=O)c3ccc(C)o3)=C(O)C(=O)N2c2nc(C)c(C(C)=O)s2)c1 (stereo unspecified),"inconclusive [inhibitor, single point]",–

SMILES,Potency,"activity change, negative = inhibition"
O=C(c1ccco1)N(CC1CCCO1)c1nc(-c2ccccc2)cs1 (stereo unspecified),"inconclusive [inhibitor, single point]",–
O=C(CCC(=O)NNC(=S)Nc1ccccc1)NCc1ccccc1,–,inactive: 25.9%
Cc1ccc(S(=O)(=O)NCCNS(=O)(=O)c2ccccc2Br)cc1,–,inactive: -8.59%
CC(C)n1cnc2c(NCc3ccccc3)cc(N[C@@H](CO)Cc3ccccc3)cc21,"inconclusive [inhibitor, single point]",–
CCOC(=O)c1c(CS(=O)(=O)c2ccccc2)n(C)c2cc(Br)c(O)cc12,"inconclusive [inhibitor, single point]",–
CCCCN(C(=O)c1cccc(-n2cccc2)c1)c1c(N)n(Cc2ccccc2)c(=O)[nH]c1=O,–,inactive: -22.9%
CC1(C)CC(=O)c2sc(N3CCCCC3)nc2C1,–,inactive: 2.39%
N#CCc1nn2c(-c3ccccc3)ccnc2c1C#N,–,inactive: -18.8%
O=[N+]([O-])c1nn(-c2ccc(Cl)cc2)n(O)c1=NCc1ccccc1Cl,–,inactive: -11.4%
COc1ccc(N2C(=O)C(Cl)=C(Oc3cccc(OC)c3)C2=O)cc1,"inconclusive [inhibitor, single point]",–
O=c1[nH]c2ccc(Cl)cc2c(-c2ccccc2)c1N1CCN(CCO)CC1,"inconclusive [inhibitor, single point]",–
CCN(CC)S(=O)(=O)N1CCC(C(=O)NC(C)CCc2ccccc2)CC1 (stereo unspecified),"inconclusive [inhibitor, partial curve]",–
N#Cc1ccccc1NC(=O)COC(=O)C1CCN(C(=O)c2ccc(Cl)cc2)CC1,–,inactive: -6.72%
c1ccc(Cn2nnc3c(N4CCN(Cc5ccc6c(c5)OCO6)CC4)ncnc32)cc1,active: 7.08 µM,–
COc1ccc(C)cc1NC(=O)COC(=O)c1c(C)noc1C,"inconclusive [inhibitor, single point]",–
Cc1cc(C)nc(NC(=O)/C=C/c2ccccc2Cl)c1,"inconclusive [inhibitor, partial curve]",–
COc1ccc(-c2noc(-c3ccccc3C(=O)Nc3cccnc3)n2)cc1,active: 10 µM,–
O=C(N/N=C/C=N/NC(=O)c1ccco1)c1ccco1,–,inactive: 1.75%
CCOCCCNC(=O)C(c1ccc(OC)cc1)N(Cc1ccc2c(c1)OCO2)C(=O)c1ccccc1O (stereo unspecified),"inconclusive [inhibitor, partial curve, poor fit]",–
Cc1ccc2c(Cl)c(C(=O)NCC(c3ccco3)N3CCCC3)sc2c1 (stereo unspecified),"inconclusive [inhibitor, single point]",–
O=c1oc2ccccc2c(Nc2ccc3ccccc3c2)c1[N+](=O)[O-],"inconclusive [inhibitor, partial curve, poor fit]",–
CCCn1c(C)cc(/C=C(\C#N)C(=O)OCC(=O)Nc2cccc(S(N)(=O)=O)c2)c1C,"inconclusive [inhibitor, partial curve]",–

SMILES,Potency,"activity change, negative = inhibition"
CC(=O)Oc1ccc2ccc(=O)oc2c1,"inconclusive [inhibitor, partial curve, poor fit]",–
Cc1ccc(Nc2nc(-c3ccccc3)cs2)nc1,"inconclusive [inhibitor, single point]",–
O=C(c1sccc1Br)N1CCN(Cc2ccc3c(c2)OCO3)CC1,"inconclusive [inhibitor, single point]",–
CCCC(=O)C1=C(O)C(C(=O)OC)C(C)(C)CC1=NCc1ccccc1 (stereo unspecified),–,inactive: 4.39%
CN(C)CCNC(=O)c1cc2sc3ccccc3c2s1,"inconclusive [inhibitor, single point]",–
COc1cc(/C=C/C(=O)OCC(=O)Nc2ccc(S(=O)(=O)N3CCCC3)cc2)ccc1O,"inconclusive [inhibitor, single point]",–
CCc1ccc(N=C2NC(=O)/C(=C/c3cc(OC)c(O)c(OC)c3)S2)cc1,"inconclusive [inhibitor, partial curve]",–
COc1ccc(OC)c(CCNC(=O)CN2C(=O)COc3ccc(S(=O)(=O)N4CCOCC4)cc32)c1,–,inactive: -4.84%
COc1ccc(C(C(=O)NCc2ccccc2)N(Cc2ccco2)C(=O)c2snc(C(N)=O)c2N)cc1 (stereo unspecified),"inconclusive [inhibitor, full curve]",–
O=C(NC(=S)Nc1ccccc1N1CCCCC1)c1ccccc1,active: 11.2 µM,–
O=C(c1ccco1)N1CCC(c2nc(-c3ccc(F)cc3)no2)CC1,"inconclusive [inhibitor, single point]",–
COc1ccc(CCNC(=O)C23CN(Cc4ccccc4)CC2C(c2ccc([N+](=O)[O-])cc2)=NO3)cc1 (stereo unspecified),"inconclusive [inhibitor, partial curve]",–
C[n+]1ccccc1/C=C/c1ccc(C#N)cc1,–,inactive: 17.2%
CC1Cc2cc(S(=O)(=O)N3CCN(c4ccccc4F)CC3)ccc2N1C(=O)C1CC1 (stereo unspecified),"inconclusive [inhibitor, partial curve]",–
CS(=O)(=O)c1ncc(Cl)c(C(=O)Nc2ccc(OC(F)F)cc2)n1,"inconclusive [inhibitor, single point]",–
N#Cc1ccc(NC(=O)COC(=O)CSc2nnc(-c3ccc(Cl)cc3)o2)cc1,–,inactive: -7.07%
C=CCNc1ncnc2c1ncn2C1OC(CO)C(O)C1O (stereo unspecified),"inconclusive [inhibitor, full curve, poor fit]",–
COc1ccc(S(=O)(=O)N(C)C[C@@H]2Oc3c(NS(=O)(=O)c4cn(C)cn4)cccc3C(=O)N([C@@H](C)CO)C[C@@H]2C)cc1,–,inactive: 29.7%
CCC1(c2ccc(F)cc2)NC(=O)N(CC(=O)N2CCN(S(=O)(=O)c3ccc(C)cc3C)CC2)C1=O (stereo unspecified),"inconclusive [inhibitor, single point]",–
Cc1ccc(NC(=O)CCCSc2ccccc2)cc1S(=O)(=O)N1CCOCC1,"inconclusive [inhibitor, partial curve]",–
C=CCOc1ccccc1/C=N/NC(=O)Cc1ccc(C)cc1,"inconclusive [inhibitor, partial curve]",–
COc1ccc(C(=O)Oc2ccc(/C=N/O)cc2)cc1,–,inactive: 11.8%
